The other results are listed elsewhere or left out. Repeats are few or missing, and single values can be far off.
Test system: UACC62
Experiment: cell count relative to DMSO control; melanoma cells; higher = more viable cells
Details: library dose: low library concentration; 72 h
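Further: cell number obtained by counting DAPI-stained nuclei in high-throughput microscope images with image analysis software, screen run in 1,536-well plates.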

Structure (SMILES)	cell count [%]
CC1(C)CCC(c2ccc(Cl)cc2)=C(CN2CCN(c3ccc(C(=O)NS(=O)(=O)c4ccc(N[C@H](CCN5CCOCC5)CSc5ccccc5)c(S(=O)(=O)C(F)(F)F)c4)cc3)CC2)C1 + Cc1cn(-c2cc(NC(=O)c3ccc(C)c(Nc4nccc(-c5cccnc5)n4)c3)cc(C(F)(F)F)c2)cn1 [nilotinib] (first compound 0.4 µM, partner dose 0.2 µM)	99.5
Cc1ccc(Nc2nccc(N(C)c3ccc4c(C)n(C)nc4c3)n2)cc1S(N)(=O)=O [Pazopanib] + CO[C@H]1C[C@@H]2CC[C@@H](C)[C@@](O)(O2)C(=O)C(=O)N2CCCC[C@H]2C(=O)O[C@H]([C@H](C)C[C@@H]2CC[C@@H](OCCO)[C@H](OC)C2)CC(=O)[C@H](C)/C=C(\C)[C@@H](O)[C@@H](OC)C(=O)[C@H](C)C[C@H](C)/C=C/C=C/C=C/1C [everolimus] (first compound 0.4 µM, partner dose 0.02 µM)	78.8
Cc1ccc(Nc2nccc(N(C)c3ccc4c(C)n(C)nc4c3)n2)cc1S(N)(=O)=O [Pazopanib] + Cn1nnc2c(C(N)=O)ncn2c1=O [temozolomide] (first compound 0.4 µM, partner dose 2 µM)	73.3
CC1(C)CCC(c2ccc(Cl)cc2)=C(CN2CCN(c3ccc(C(=O)NS(=O)(=O)c4ccc(N[C@H](CCN5CCOCC5)CSc5ccccc5)c(S(=O)(=O)C(F)(F)F)c4)cc3)CC2)C1 + COc1ccc(C2=N[C@@H](c3ccc(Cl)cc3)[C@@H](c3ccc(Cl)cc3)N2C(=O)N2CCNC(=O)C2)c(OC(C)C)c1 [Nutlin-3] (first compound 0.4 µM, partner dose 0.1 µM)	95.6
Cc1ccc(Nc2nccc(N(C)c3ccc4c(C)n(C)nc4c3)n2)cc1S(N)(=O)=O [Pazopanib] + CNC(=O)c1cc(Oc2ccc(NC(=O)Nc3ccc(Cl)c(C(F)(F)F)c3)cc2)ccn1 [sorafenib] (first compound 0.4 µM, partner dose 0.4 µM)	82.1
CC1(C)CCC(c2ccc(Cl)cc2)=C(CN2CCN(c3ccc(C(=O)NS(=O)(=O)c4ccc(N[C@H](CCN5CCOCC5)CSc5ccccc5)c(S(=O)(=O)C(F)(F)F)c4)cc3)CC2)C1 + C=CCNC1=C2C[C@@H](C)C[C@H](OC)[C@H](O)[C@@H](C)/C=C(\C)[C@H](OC(N)=O)[C@@H](OC)/C=C\C=C(/C)C(=O)NC(=CC1=O)C2=O [Tanespimycin] (first compound 0.4 µM, partner dose 0.002 µM)	107
O=C(/C=C/c1cccnc1)NCCCCC1CCN(C(=O)c2ccccc2)CC1 + NCC(=O)Nc1ccc(-n2nc(C(F)(F)F)cc2-c2ccc3c(ccc4ccccc43)c2)cc1 [OSU03012] (first compound 0.01 µM, partner dose 1 µM)	87.8
CC1(C)CCC(c2ccc(Cl)cc2)=C(CN2CCN(c3ccc(C(=O)NS(=O)(=O)c4ccc(N[C@H](CCN5CCOCC5)CSc5ccccc5)c(S(=O)(=O)C(F)(F)F)c4)cc3)CC2)C1 + CCCS(=O)(=O)Nc1ccc(F)c(C(=O)c2c[nH]c3ncc(Cl)cc23)c1F [PLX4720] (first compound 0.4 µM, partner dose 0.08 µM)	75.6
CC1(C)CCC(c2ccc(Cl)cc2)=C(CN2CCN(c3ccc(C(=O)NS(=O)(=O)c4ccc(N[C@H](CCN5CCOCC5)CSc5ccccc5)c(S(=O)(=O)C(F)(F)F)c4)cc3)CC2)C1 + Nc1cccc2c1CN(C1CCC(=O)NC1=O)C2=O [lenalidomide] (first compound 0.4 µM, partner dose 1 µM)	95
Cc1ccc(Nc2nccc(N(C)c3ccc4c(C)n(C)nc4c3)n2)cc1S(N)(=O)=O [Pazopanib] + C=CCn1c(=O)c2cnc(Nc3ccc(N4CCN(C)CC4)cc3)nc2n1-c1cccc(C(C)(C)O)n1 [MK1775] (first compound 0.4 µM, partner dose 0.02 µM)	74.3
O=C(/C=C/c1cccnc1)NCCCCC1CCN(C(=O)c2ccccc2)CC1 + Nc1nc(F)nc2c1ncn2[C@@H]1O[C@H](CO)[C@@H](O)[C@@H]1O [fludarabine] (first compound 0.01 µM, partner dose 0.2 µM)	94.1
CC1(C)CCC(c2ccc(Cl)cc2)=C(CN2CCN(c3ccc(C(=O)NS(=O)(=O)c4ccc(N[C@H](CCN5CCOCC5)CSc5ccccc5)c(S(=O)(=O)C(F)(F)F)c4)cc3)CC2)C1 + CS(=O)(=O)CCNCc1ccc(-c2ccc3ncnc(Nc4ccc(OCc5cccc(F)c5)c(Cl)c4)c3c2)o1 [lapatinib] (first compound 0.4 µM, partner dose 0.8 µM)	98.9
Cc1ccc(Nc2nccc(N(C)c3ccc4c(C)n(C)nc4c3)n2)cc1S(N)(=O)=O [Pazopanib] + Nc1cccc2c1CN(C1CCC(=O)NC1=O)C2=O [lenalidomide] (first compound 0.4 µM, partner dose 1 µM)	92.4
Cc1ccc(Nc2nccc(N(C)c3ccc4c(C)n(C)nc4c3)n2)cc1S(N)(=O)=O [Pazopanib] + COC(=O)c1sccc1S(=O)(=O)Nc1ccc(Nc2ccccc2)cc1OC [GSK0660] (first compound 0.4 µM, partner dose 1 µM)	83.1
O=C(/C=C/c1cccnc1)NCCCCC1CCN(C(=O)c2ccccc2)CC1 + CN1CCN(c2ccc3nc(-c4c(N)c5c(F)cccc5[nH]c4=O)[nH]c3c2)CC1 [Dovitinib] (first compound 0.01 µM, partner dose 0.1 µM)	103
CC1(C)CCC(c2ccc(Cl)cc2)=C(CN2CCN(c3ccc(C(=O)NS(=O)(=O)c4ccc(N[C@H](CCN5CCOCC5)CSc5ccccc5)c(S(=O)(=O)C(F)(F)F)c4)cc3)CC2)C1 + Cn1nnc2c(C(N)=O)ncn2c1=O [temozolomide] (first compound 0.4 µM, partner dose 2 µM)	87.5
O=C(/C=C/c1cccnc1)NCCCCC1CCN(C(=O)c2ccccc2)CC1 + Nc1cccc2c1CN(C1CCC(=O)NC1=O)C2=O [lenalidomide] (first compound 0.01 µM, partner dose 1 µM)	90

Source: the supplement of paper PMC4604168 (melanoma cell lines)
